Test results: paper PMC3170326, “AKAP12 and AKAP5 form higher-order hetero-oligomers” (Journal of Molecular Signaling, 2011)
Results are given in words; binding and its absence hold for the method and conditions named. Binding seen in cells or lysates may run through a third protein. Some results given as binding are weak or reduced against the parent protein; the word gives no strength. For some assays here: Sequences can lack the tags named with a protein.

Sequences of proteins named here, by UniProt entry; tags and fusion partners are left off.
UniProt P24588: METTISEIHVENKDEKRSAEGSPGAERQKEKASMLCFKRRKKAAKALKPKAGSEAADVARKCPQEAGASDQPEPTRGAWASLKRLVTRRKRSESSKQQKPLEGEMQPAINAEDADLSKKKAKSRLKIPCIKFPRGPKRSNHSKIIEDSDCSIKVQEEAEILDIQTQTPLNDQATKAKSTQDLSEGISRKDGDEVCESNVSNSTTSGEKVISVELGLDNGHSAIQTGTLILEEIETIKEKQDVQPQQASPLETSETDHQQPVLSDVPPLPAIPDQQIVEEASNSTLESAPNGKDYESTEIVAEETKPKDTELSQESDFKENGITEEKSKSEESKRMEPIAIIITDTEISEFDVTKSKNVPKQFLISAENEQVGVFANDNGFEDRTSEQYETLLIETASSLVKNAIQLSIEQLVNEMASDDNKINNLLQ

Columns and labels:
Experiment in all cases: co-IP; anti-HA immunoprecipitation from whole-cell lysates of A431 cells co-expressing an HA-tagged and a GFP-tagged AKAP; cells untreated, treated with 10 uM isoproterenol for 10-30 min, or washed free of agonist for 2 h; immunoblot
[1] = target: T1, HA-AKAP12 (1-652) (human) (UniProt Q02952)
T1 sequence: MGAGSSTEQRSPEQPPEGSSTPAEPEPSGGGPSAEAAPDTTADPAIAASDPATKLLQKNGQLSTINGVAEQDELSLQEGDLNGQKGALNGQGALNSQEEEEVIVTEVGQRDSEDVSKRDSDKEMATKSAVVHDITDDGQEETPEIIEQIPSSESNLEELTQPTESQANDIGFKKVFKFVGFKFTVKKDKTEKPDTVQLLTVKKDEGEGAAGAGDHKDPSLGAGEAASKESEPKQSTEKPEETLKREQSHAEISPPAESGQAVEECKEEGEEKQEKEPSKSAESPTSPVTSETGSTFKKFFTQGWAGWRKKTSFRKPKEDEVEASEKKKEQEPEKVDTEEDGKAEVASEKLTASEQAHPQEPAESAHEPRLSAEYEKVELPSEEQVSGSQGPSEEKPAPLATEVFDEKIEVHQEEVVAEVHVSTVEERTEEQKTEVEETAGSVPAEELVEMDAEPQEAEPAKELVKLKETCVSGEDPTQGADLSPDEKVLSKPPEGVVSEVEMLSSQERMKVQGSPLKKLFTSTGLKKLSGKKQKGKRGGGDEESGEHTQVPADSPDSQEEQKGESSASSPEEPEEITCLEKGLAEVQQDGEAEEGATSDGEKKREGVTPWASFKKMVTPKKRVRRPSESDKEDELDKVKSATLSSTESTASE

[2] = target: T2, HA-AKAP12 (554-938) (human) (UniProt Q02952)
T2 sequence: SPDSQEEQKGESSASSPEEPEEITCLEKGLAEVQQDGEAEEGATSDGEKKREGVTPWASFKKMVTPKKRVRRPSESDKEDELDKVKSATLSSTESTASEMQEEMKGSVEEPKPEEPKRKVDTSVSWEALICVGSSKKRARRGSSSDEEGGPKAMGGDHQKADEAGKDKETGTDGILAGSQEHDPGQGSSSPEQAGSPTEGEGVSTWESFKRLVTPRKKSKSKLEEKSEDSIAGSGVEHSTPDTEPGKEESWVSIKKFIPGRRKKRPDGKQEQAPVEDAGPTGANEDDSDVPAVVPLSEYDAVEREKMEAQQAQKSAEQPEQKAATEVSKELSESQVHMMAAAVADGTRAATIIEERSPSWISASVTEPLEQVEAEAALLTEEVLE

[3] = target: T3, HA-AKAP12 (1-362) (human) (UniProt Q02952)
T3 sequence: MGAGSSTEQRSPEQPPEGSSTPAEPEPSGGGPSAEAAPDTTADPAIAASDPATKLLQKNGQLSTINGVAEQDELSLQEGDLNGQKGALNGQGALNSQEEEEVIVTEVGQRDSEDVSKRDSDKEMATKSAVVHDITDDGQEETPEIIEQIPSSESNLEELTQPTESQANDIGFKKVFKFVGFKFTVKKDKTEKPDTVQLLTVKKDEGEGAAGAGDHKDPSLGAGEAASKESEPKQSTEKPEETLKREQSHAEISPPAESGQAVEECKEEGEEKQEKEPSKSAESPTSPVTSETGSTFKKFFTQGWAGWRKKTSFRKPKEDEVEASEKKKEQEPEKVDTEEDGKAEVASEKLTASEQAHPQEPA

[4] = target: T4, HA-tagged AKAP12 (840-1782) (human) (UniProt Q02952)
T4 sequence: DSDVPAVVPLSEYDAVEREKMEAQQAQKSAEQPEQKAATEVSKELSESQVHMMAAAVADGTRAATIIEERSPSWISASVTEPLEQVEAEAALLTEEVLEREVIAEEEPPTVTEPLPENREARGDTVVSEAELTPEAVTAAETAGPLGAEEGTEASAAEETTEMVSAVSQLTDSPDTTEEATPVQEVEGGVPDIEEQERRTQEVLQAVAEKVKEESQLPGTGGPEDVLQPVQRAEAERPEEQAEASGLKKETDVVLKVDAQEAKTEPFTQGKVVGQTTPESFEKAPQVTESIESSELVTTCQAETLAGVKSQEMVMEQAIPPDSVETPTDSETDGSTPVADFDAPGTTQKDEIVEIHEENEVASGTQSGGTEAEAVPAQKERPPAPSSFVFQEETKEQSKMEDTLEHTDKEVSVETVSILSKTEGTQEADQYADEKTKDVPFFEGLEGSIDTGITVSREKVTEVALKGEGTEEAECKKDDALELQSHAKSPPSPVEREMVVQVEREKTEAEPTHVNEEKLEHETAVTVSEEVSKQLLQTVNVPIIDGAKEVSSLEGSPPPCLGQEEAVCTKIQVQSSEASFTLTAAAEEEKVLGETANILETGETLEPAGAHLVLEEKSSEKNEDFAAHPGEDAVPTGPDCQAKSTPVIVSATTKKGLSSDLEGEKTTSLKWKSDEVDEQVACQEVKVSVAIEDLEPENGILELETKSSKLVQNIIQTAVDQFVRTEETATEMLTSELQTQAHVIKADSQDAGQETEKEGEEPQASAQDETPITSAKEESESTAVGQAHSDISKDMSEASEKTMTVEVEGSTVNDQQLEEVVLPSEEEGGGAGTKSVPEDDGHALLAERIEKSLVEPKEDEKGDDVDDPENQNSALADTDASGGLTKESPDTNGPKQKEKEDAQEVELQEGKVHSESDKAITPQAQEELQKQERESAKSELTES

[5] = target: T5, HA-tagged full-length AKAP5 (human, UniProt P24588 1-427)
T5 construct: AKAP5 (AKAP79), human, full length; pCMV-HA vector; also called HA-AKAP5; source: A431 cells, transiently transfected, in lysate

Molecule: GFP-tagged AKAP5 (from UniProt P24588 1-427)
- binding [1]: binds
- binding [2]: binds
- binding [3]: binds
- binding [4]: binds

B1: GFP-tagged AKAP12 (natural protein, human, UniProt Q02952 1-1782, looked up)
chain: MGAGSSTEQRSPEQPPEGSSTPAEPEPSGGGPSAEAAPDTTADPAIAASDPATKLLQKNGQLSTINGVAEQDELSLQEGDLNGQKGALNGQGALNSQEEEEVIVTEVGQRDSEDVSKRDSDKEMATKSAVVHDITDDGQEETPEIIEQIPSSESNLEELTQPTESQANDIGFKKVFKFVGFKFTVKKDKTEKPDTVQLLTVKKDEGEGAAGAGDHKDPSLGAGEAASKESEPKQSTEKPEETLKREQSHAEISPPAESGQAVEECKEEGEEKQEKEPSKSAESPTSPVTSETGSTFKKFFTQGWAGWRKKTSFRKPKEDEVEASEKKKEQEPEKVDTEEDGKAEVASEKLTASEQAHPQEPAESAHEPRLSAEYEKVELPSEEQVSGSQGPSEEKPAPLATEVFDEKIEVHQEEVVAEVHVSTVEERTEEQKTEVEETAGSVPAEELVEMDAEPQEAEPAKELVKLKETCVSGEDPTQGADLSPDEKVLSKPPEGVVSEVEMLSSQERMKVQGSPLKKLFTSTGLKKLSGKKQKGKRGGGDEESGEHTQVPADSPDSQEEQKGESSASSPEEPEEITCLEKGLAEVQQDGEAEEGATSDGEKKREGVTPWASFKKMVTPKKRVRRPSESDKEDELDKVKSATLSSTESTASEMQEEMKGSVEEPKPEEPKRKVDTSVSWEALICVGSSKKRARRGSSSDEEGGPKAMGGDHQKADEAGKDKETGTDGILAGSQEHDPGQGSSSPEQAGSPTEGEGVSTWESFKRLVTPRKKSKSKLEEKSEDSIAGSGVEHSTPDTEPGKEESWVSIKKFIPGRRKKRPDGKQEQAPVEDAGPTGANEDDSDVPAVVPLSEYDAVEREKMEAQQAQKSAEQPEQKAATEVSKELSESQVHMMAAAVADGTRAATIIEERSPSWISASVTEPLEQVEAEAALLTEEVLEREVIAEEEPPTVTEPLPENREARGDTVVSEAELTPEAVTAAETAGPLGAEEGTEASAAEETTEMVSAVSQLTDSPDTTEEATPVQEVEGGVPDIEEQERRTQEVLQAVAEKVKEESQLPGTGGPEDVLQPVQRAEAERPEEQAEASGLKKETDVVLKVDAQEAKTEPFTQGKVVGQTTPESFEKAPQVTESIESSELVTTCQAETLAGVKSQEMVMEQAIPPDSVETPTDSETDGSTPVADFDAPGTTQKDEIVEIHEENEVASGTQSGGTEAEAVPAQKERPPAPSSFVFQEETKEQSKMEDTLEHTDKEVSVETVSILSKTEGTQEADQYADEKTKDVPFFEGLEGSIDTGITVSREKVTEVALKGEGTEEAECKKDDALELQSHAKSPPSPVEREMVVQVEREKTEAEPTHVNEEKLEHETAVTVSEEVSKQLLQTVNVPIIDGAKEVSSLEGSPPPCLGQEEAVCTKIQVQSSEASFTLTAAAEEEKVLGETANILETGETLEPAGAHLVLEEKSSEKNEDFAAHPGEDAVPTGPDCQAKSTPVIVSATTKKGLSSDLEGEKTTSLKWKSDEVDEQVACQEVKVSVAIEDLEPENGILELETKSSKLVQNIIQTAVDQFVRTEETATEMLTSELQTQAHVIKADSQDAGQETEKEGEEPQASAQDETPITSAKEESESTAVGQAHSDISKDMSEASEKTMTVEVEGSTVNDQQLEEVVLPSEEEGGGAGTKSVPEDDGHALLAERIEKSLVEPKEDEKGDDVDDPENQNSALADTDASGGLTKESPDTNGPKQKEKEDAQEVELQEGKVHSESDKAITPQAQEELQKQERESAKSELTES
notes: AKAP12 (gravin), human, full length; also called AKAP12-GFP; full-length AKAP12; source: A431 cells, stably expressing, in lysate
- binding [5]: binds
